Measured values from the supplement of paper PMC12067230.
Single values of this set are uncertain.

experiment: amyloid nucleation score relative to library mode (yeast Sup35 reporter selection) (log enrichment difference); higher = more amyloid nucleation; sequences are the first 22 residues of the Bri2 peptide extended by up to 12 random residues; settings: random library (experiment): 1;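 active = nucleation score significantly above 0 at FDR 0.05; inactive = not significantly above 0 or absent from output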
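Note: [psi-pin-] Saccharomyces cerevisiae expressing SupN fusions, induced by 100 µM Cu2SO4, selected 7 d at 30 °C without adenine and uracil, scored by deep sequencing of output versus input.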

| Sequence | amyloid nucleation score |
| --- | --- |
| EASNCFAIRHFENKFAVETLICEQTVRSRGLA | inactive |
| EASNCFAIRHFENKFAVETLICERARPDGSPGMG | inactive |
| EASNCFAIRHFENKFAVETLICERGLHVPRSFAI | inactive |
| EASNCFAIRHFENKFAVETLICERGMGAVVMARG | inactive |
| EASNCFAIRHFENKFAVETLICERGVHGWKHGLR | 3.36 |
| EASNCFAIRHFENKFAVETLICERLFRYWDWLGE | inactive |
| EASNCFAIRHFENKFAVETLICERLHYFCYRLYA | inactive |
| EASNCFAIRHFENKFAVETLICERLVLRGRSGVK | inactive |
| EASNCFAIRHFENKFAVETLICERPSRQRRGARW | inactive |
| EASNCFAIRHFENKFAVETLICERR | inactive |
| EASNCFAIRHFENKFAVETLICERRDYTCPLPGR | inactive |
| EASNCFAIRHFENKFAVETLICERRLGLKVVVCG | 1.01 |
| EASNCFAIRHFENKFAVETLICERSPVQTAGMAD | inactive |
| EASNCFAIRHFENKFAVETLICERTICGIYCLCW | inactive |
| EASNCFAIRHFENKFAVETLICERVSNCWGQVDG | inactive |
| EASNCFAIRHFENKFAVETLICES | inactive |
| EASNCFAIRHFENKFAVETLICESAGWLDARK | 1.55 |
| EASNCFAIRHFENKFAVETLICESERAGAVDGMA | inactive |
| EASNCFAIRHFENKFAVETLICESEWEPKDSVWI | inactive |
| EASNCFAIRHFENKFAVETLICESFAFVTTVCAA | inactive |
| EASNCFAIRHFENKFAVETLICESFVSGVFTLGT | 6.11 |
| EASNCFAIRHFENKFAVETLICESGSGQHPASAV | inactive |
| EASNCFAIRHFENKFAVETLICESGTHGGVCMML | inactive |
| EASNCFAIRHFENKFAVETLICESGWEVDSQPLH | inactive |
| EASNCFAIRHFENKFAVETLICESHCILSLCAAV | inactive |
| EASNCFAIRHFENKFAVETLICESLRHGLAFVVS | inactive |
| EASNCFAIRHFENKFAVETLICESNSGWLHVQGL | inactive |

| Sequence | amyloid nucleation score |
| --- | --- |
| EASNCFAIRHFENKFAVETLICESQGARNLWCRR | 0.683 |
| EASNCFAIRHFENKFAVETLICESRIKNQ | inactive |
| EASNCFAIRHFENKFAVETLICESRLVWTFEHVV | inactive |
| EASNCFAIRHFENKFAVETLICESRSERLSTGDG | inactive |
| EASNCFAIRHFENKFAVETLICESRSNGLLHC | inactive |
| EASNCFAIRHFENKFAVETLICESRT | inactive |
| EASNCFAIRHFENKFAVETLICESSSRSVMSVWW | -0.227 |
| EASNCFAIRHFENKFAVETLICESSWF | inactive |
| EASNCFAIRHFENKFAVETLICESVMACGRCWSC | 5.57 |
| EASNCFAIRHFENKFAVETLICESYFWFPESTSS | inactive |
| EASNCFAIRHFENKFAVETLICESYVTRRLPRCS | inactive |
| EASNCFAIRHFENKFAVETLICET | 0.552 |
| EASNCFAIRHFENKFAVETLICETCGR | inactive |
| EASNCFAIRHFENKFAVETLICETCTVRKLAMGV | inactive |
| EASNCFAIRHFENKFAVETLICETDWMGMGGSSE | inactive |
| EASNCFAIRHFENKFAVETLICETHNTCGAAWEL | inactive |
| EASNCFAIRHFENKFAVETLICETLVCRTQDPPG | inactive |
| EASNCFAIRHFENKFAVETLICETSPPEDRGKMG | inactive |
| EASNCFAIRHFENKFAVETLICETYCRQCGMTP | 0.841 |
| EASNCFAIRHFENKFAVETLICEV | -0.321 |
| EASNCFAIRHFENKFAVETLICEVAWTLGKAVWS | inactive |
| EASNCFAIRHFENKFAVETLICEVETGV | inactive |
| EASNCFAIRHFENKFAVETLICEVGPLVVRLC | 0.087 |
| EASNCFAIRHFENKFAVETLICEVIPRDGCYREG | inactive |
| EASNCFAIRHFENKFAVETLICEVLAYNMLLMGA | inactive |
| EASNCFAIRHFENKFAVETLICEVMEMSSTVVRT | inactive |
| EASNCFAIRHFENKFAVETLICEVMSR | inactive |

same assay, conditions: random library (experiment): 2

| Sequence | amyloid nucleation score |
| --- | --- |
| EASNCFAIRHFENKFAVETLICERCF | inactive |
| EASNCFAIRHFENKFAVETLICERGSSENGLYGV | inactive |
| EASNCFAIRHFENKFAVETLICERHFSIFIRC | inactive |
| EASNCFAIRHFENKFAVETLICERSALLWGVEDG | inactive |
| EASNCFAIRHFENKFAVETLICERSKMWGSLGRK | 3.23 |
| EASNCFAIRHFENKFAVETLICERVYM | 5.51 |
| EASNCFAIRHFENKFAVETLICESATSKWIVIYV | -0.113 |
| EASNCFAIRHFENKFAVETLICESF | inactive |
| EASNCFAIRHFENKFAVETLICESHWLNIATSDP | inactive |
| EASNCFAIRHFENKFAVETLICESIMRVWGFAW | inactive |
| EASNCFAIRHFENKFAVETLICESLPNGTRPNCV | 1.19 |
| EASNCFAIRHFENKFAVETLICESLWGYSGLRFV | -0.519 |
| EASNCFAIRHFENKFAVETLICESLWLNKCDRL | inactive |
| EASNCFAIRHFENKFAVETLICESMSVDSLWLLN | 4.32 |
| EASNCFAIRHFENKFAVETLICESPLGLVRWALR | inactive |
| EASNCFAIRHFENKFAVETLICESS | inactive |

| Sequence | amyloid nucleation score |
| --- | --- |
| EASNCFAIRHFENKFAVETLICESSILWNEERYV | inactive |
| EASNCFAIRHFENKFAVETLICESVKRRWLICEG | inactive |
| EASNCFAIRHFENKFAVETLICESVNSAILCSGC | inactive |
| EASNCFAIRHFENKFAVETLICESYHGH | inactive |
| EASNCFAIRHFENKFAVETLICETAVQYRNGTAS | 2.96 |
| EASNCFAIRHFENKFAVETLICETCDVTFDSCTR | inactive |
| EASNCFAIRHFENKFAVETLICETDLWLEDHAR | inactive |
| EASNCFAIRHFENKFAVETLICETGYNITVCRCR | 5.71 |
| EASNCFAIRHFENKFAVETLICETQTG | inactive |
| EASNCFAIRHFENKFAVETLICETSFMFASEFFR | 2.58 |
| EASNCFAIRHFENKFAVETLICETVTRW | inactive |
| EASNCFAIRHFENKFAVETLICETYSSNMFRRC | -0.513 |
| EASNCFAIRHFENKFAVETLICEVGCHFSSDSSI | 1.1 |
| EASNCFAIRHFENKFAVETLICEVKWKNVMSWEA | 1.37 |
| EASNCFAIRHFENKFAVETLICEVNEGVLRFWVP | -0.104 |

same assay, conditions: random library (experiment): 3

| Sequence | amyloid nucleation score |
| --- | --- |
| EASNCFAIRHFENKFAVETLICEQNCRANRVSPG | inactive |
| EASNCFAIRHFENKFAVETLICEQTPAYRRRDGV | 3.37 |
| EASNCFAIRHFENKFAVETLICERAWAVR | inactive |
| EASNCFAIRHFENKFAVETLICERAWRHGVRGTR | inactive |
| EASNCFAIRHFENKFAVETLICERCTYVELCH | inactive |
| EASNCFAIRHFENKFAVETLICERDRLLMCTTRR | inactive |
| EASNCFAIRHFENKFAVETLICEREIGGWVVWQG | inactive |
| EASNCFAIRHFENKFAVETLICERF | inactive |
| EASNCFAIRHFENKFAVETLICERGPSLAVYGSK | inactive |
| EASNCFAIRHFENKFAVETLICERLSGQPIVPVW | inactive |
| EASNCFAIRHFENKFAVETLICERRRLGWEGTTL | 1.15 |
| EASNCFAIRHFENKFAVETLICERRWLLVMLGQG | inactive |
| EASNCFAIRHFENKFAVETLICESAAYGAMVWAR | inactive |
| EASNCFAIRHFENKFAVETLICESAWSFRKWSIV | inactive |
| EASNCFAIRHFENKFAVETLICESDNGCQSVPIV | inactive |
| EASNCFAIRHFENKFAVETLICESGLSSAGLS | inactive |
| EASNCFAIRHFENKFAVETLICESGWSWTGHNTW | 3.98 |

| Sequence | amyloid nucleation score |
| --- | --- |
| EASNCFAIRHFENKFAVETLICESLF | 5.26 |
| EASNCFAIRHFENKFAVETLICESLHSMGSLRVV | inactive |
| EASNCFAIRHFENKFAVETLICESQVVACSMGVM | inactive |
| EASNCFAIRHFENKFAVETLICESRVVYYSRFSR | 3.66 |
| EASNCFAIRHFENKFAVETLICESWYWTITVPRC | inactive |
| EASNCFAIRHFENKFAVETLICETGCTLLLVMVV | inactive |
| EASNCFAIRHFENKFAVETLICETKAGIGRVPVS | 1.4 |
| EASNCFAIRHFENKFAVETLICETQCRPCVIRWR | inactive |
| EASNCFAIRHFENKFAVETLICETRASERFMLAA | inactive |
| EASNCFAIRHFENKFAVETLICETVVGILITQNG | inactive |
| EASNCFAIRHFENKFAVETLICETVVVVLRACEP | inactive |
| EASNCFAIRHFENKFAVETLICETVYRSLGQTSN | inactive |
| EASNCFAIRHFENKFAVETLICEVCAVSMDWW | 6.05 |
| EASNCFAIRHFENKFAVETLICEVFGPAESARTA | inactive |
| EASNCFAIRHFENKFAVETLICEVMPGVGRQRRA | 2.93 |
| EASNCFAIRHFENKFAVETLICEVMWYRHLYQPM | inactive |
